# Measured values published in the supplement of paper PMC11417369.
# The other results are listed elsewhere or left out.
# Tested on: PfAP2-HC AP2 domain (GST-tagged)
# Assay: gcPBM binding intensity (ln(normalized median fluorescence intensity)); higher = stronger DNA binding
# Outline: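 Binding intensity values are the highest Masliner-normalised natural-log median intensity among replicate spots of either probe orientation. The binding step lasted 1 h in 1× PBS with 1% milk, 0.2 mg/ml BSA, 0.5% salmon testes DNA and 0.03% Triton X-100, using GST-tagged P. falciparum DNA-binding domains expressed in E. coli on an Agilent 4 × 180k array of primer-extended double-stranded 36-bp intergenic genomic probes plus negative controls. Alexa488 anti-GST antibody and a 488 nm scan detected bound protein.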
row,Sequence,gcPBM binding intensity (ln)
1,AAAAAATTGACTAATGCACACAATTACATATATATA [CACACA_site1689],9.85
2,CAATTTTTCTATCATTGTACTTTTATATAATAGTGT [XGTACX_site1810],9.7
3,AATTGTTCTATGATTTGTACACACTTTTTTTTAAAA [XGTACX_site5984],9.86
4,ATTATAAATACACGCACACACACTTATATATATATA [CACACA_site5776],10.5
5,TTTTTTGCTTTCAACACACATACAATCTATATAATC [CACACA_site4125],9.84
6,TAAACCTGTAGAGATGCATGCATTGTTAACATGGTG [TGCATGCA_site515],9.69
7,AAGGAGAAATAAATATTAAAAAATTTATATATATAT [CACACA_negctrl_site1801],9.48
8,TAATATTGCAAATATAAAAAAAAATAAACCATATAT [XGTACX_negctrl_site458],9.76
9,TTCTTTTTTAACAACAAAAAAAAAAAAAAAAAAAAA [TGCATGCA_negctrl_site87],8.24
10,TTAATTATGGACAGGGTGCACATGAATAATAATACC,9.96
11,TATATTATAATAAGACGTACAAGGATGTTAAAACTT [XGTACX_site5828],9.7
12,AAAAAATATTGAAGTACACACATTATAAACTTTTTT [CACACA_site5029],9.91
13,ACCTAATTCAAATACAGTACATATACAATATATATA [XGTACX_site2779],9.63
14,AAAATTAAAAATTACTGTACGTATTAGAGAATAAAT [XGTACX_site2567],9.66
15,AAAATATTAATTAATACATGCATATATATATATATA [TGCATGCA_site585],9.52
16,TATATTGTATAAAAATGTACATGCAATAAATTTAGT [XGTACX_site5621],9.78
17,TACATTAACGGATTATTTCTCAATACAACATCATTT [CACACA_negctrl_site981],9.62
18,GTTTGTATGTCCAAATGTACATATGATTTTATGAAA [XGTACX_site6595],9.55
19,ATAGTATACAGACACACACACACACCCATATATATA [CACACA_site1736],11.7
20,AGGATATAAATATTCACACACACATGGAGATATATA [CACACA_site6317],10.8
21,TTCTTAAATGTAAATGTATATGTATTAAAAAGAGAA [TGCATGCA_negctrl_site597],9.31
22,TTATAATATTAATGTGCACACAATTAAAATATTATA [CACACA_site2046],9.84
23,TACTGTGTTTTGGTTGTACACACGCTACATTATATA [CACACA_site8863],10.2
24,ATGTTTTATATTTTTTTTTTGTTTGCTTGTTTCCTC [CACACA_negctrl_site870],9.57
